Measurements taken from publication PMC9521807 (PLoS Pathogens, 2022).

Molecular target: T1, OsRMC (Oryza sativa, UniProt Q5I7E9)
T1 sequence (Q5I7E9 24-258): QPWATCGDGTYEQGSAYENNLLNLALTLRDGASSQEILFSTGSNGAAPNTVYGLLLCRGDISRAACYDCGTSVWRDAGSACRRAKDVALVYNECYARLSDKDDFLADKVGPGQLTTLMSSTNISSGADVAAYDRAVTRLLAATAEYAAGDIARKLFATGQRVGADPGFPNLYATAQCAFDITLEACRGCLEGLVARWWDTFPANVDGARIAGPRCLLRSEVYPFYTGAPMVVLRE
Assay: mannose-agarose pull-down, anti-Flag immunoblot
Conditions: mannose immobilised on agarose

Structure (SMILES): OC[C@H]1OC(O)[C@@H](O)[C@@H](O)[C@@H]1O (stereo partly shown) [mannose]
- mannose-agarose pull-down, anti-Flag immunoblot: Incubation of OsRMC with mannose-agarose resulted in recovery of OsRMC in the bound fraction
